Test in all cases: Primary Screen for Target Class Profiling of Small Molecule Inhibitors of Methyltransferases
Assay [1] has as its target Glycine N-methyltransferase (Homo sapiens) (UniProt Q14749). Conditions: purified enzyme, MTase-Glo SAH luminescence; measured here: GNMT inhibition; at 40 µM; stronger effect = lower value. An outline of the steps:
(§1)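 Each enzyme was assayed with SAM and its substrate. SAH formation detected by MTase-Glo luminescence; single-point 40 uM screen[…].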

The target in assay [2] is Guanidinoacetate N-methyltransferase (Homo sapiens) (UniProt Q14353). Conditions: purified enzyme, MTase-Glo SAH luminescence; measured here: GAMT inhibition; at 40 µM; stronger effect = lower value. An outline of the steps: as §1
The target in assay [3] is Histamine N-methyltransferase (Homo sapiens) (UniProt P50135). Conditions: purified enzyme, MTase-Glo SAH luminescence; measured here: HNMT inhibition; at 40 µM; stronger effect = lower value. An outline of the steps: as §1
Assay [4] deals with Nicotinamide N-methyltransferase (Homo sapiens) (UniProt P40261). As to conditions: purified enzyme, MTase-Glo SAH luminescence; measured here: NNMT inhibition; at 40 µM; stronger effect = lower value. An outline of the steps: as §1
Assay [5] addresses Phenylethanolamine N-methyltransferase (Homo sapiens) (UniProt P11086). Conditions: purified enzyme, MTase-Glo SAH luminescence; measured here: PNMT inhibition; at 40 µM; stronger effect = lower value. Summed up:
as §1

The other results are listed elsewhere or left out. Further columns of the screen follow, without active or inactive calls.
% is scaled to controls: 0 for no effect and ±100 for the full control effect.

For `COCCOc1ccc2c(c1)ncn2-c1ccc2cccc(N3CCC(N)CC3)c2n1`, the activity change, negative = inhibition in assay [1] was -14.1%; in assay [2], -51.9%; in assay [3], -46.4%; in assay [4] it was -43%; in assay [5], -55.4%.
With `O=C1COc2ccc(Nc3ccc(C(F)(F)F)cc3)nc2CN1`, the activity change, negative = inhibition in assay [1] is -11.9%; in assay [2] it was -2.81%; in assay [3] it was -0.516%; in assay [4] it was -7.78%; in assay [5], -5.79%.
With `CC(C)n1c(=O)c2ccc(C(=O)NC3CCCCC3)cc2n2c(=O)n(CC(=O)N(C)c3ccccc3)nc12`, the activity change, negative = inhibition in assay [1] worked out at 0.814%; in assay [2], 4.63%; in assay [3], 4.28%; in assay [4], 0.007%; in assay [5], 1.77%.
The matching figures for `CC(C)NC(=O)CSc1nnc2n(C)c(=O)c3ccc(C(=O)NC4CCCCC4)cc3n12`: -1.94%, 0%, 7.25%, 5.57% and 7.52%.
The matching figures for `O=C(c1ccc2c(=O)nc3c(-c4ccccc4)n[nH]n3c2c1)N1CCN(c2ccccc2)CC1`: 0.672%, 1.54%, 1.15%, 4.72% and 2.19%.
Take `Cc1cc(Nc2cc(N3CCN(C)CC3)nc(/C=C/c3ccccc3)n2)n[nH]1`: the activity change, negative = inhibition was -14.9% in assay [1]; -4.55% in assay [2]; -29.5% in assay [3]; -23.8% in assay [4]; -6.61% in assay [5].
With `COc1ccc2cc(-c3nc(-c4ccc(S(C)=O)cc4)[nH]c3-c3ccncc3)ccc2c1` (stereo not drawn), the activity change, negative = inhibition in assay [1] was -14.2%; in assay [2], 14.7%; in assay [3], -6.58%; in assay [4] it was -18.1%; in assay [5], -0.725%.
For `Cc1cncc2cccc(S(=O)(=O)N3CCCN(C(=O)CN)C[C@@H]3C)c12` the same measures were -6.87%, -2%, 4.38%, -17.6% and -0.887%.
The matching figures for `CCOc1cccc(CN(C)C(=O)CN2CC3(CCN(C)CC3)CC2=O)c1`: 1.32%, 2.15%, 0.447%, 2.51% and 1.27%.
For `Cc1nc(C#Cc2ccnc(Cl)c2)c(C)n1-c1ccc(OC(F)(F)F)cc1` the same measures were -35.7%, -18%, -38.9%, -49.6% and -29.7%.
Take `CCc1cccc(NC(=O)Cn2nc3n(C(C)C)c(=O)c4ccc(C(=O)NC(C)C)cc4n3c2=O)c1`: the activity change, negative = inhibition in assay [1] came out at 1.25%; in assay [2], 0%; in assay [3], 0.778%; in assay [4] it was 1.81%; in assay [5], 4.12%.
The matching figures for `CCOc1ccc(CCN2C(=O)c3ccc(-c4ccco4)n3CC2(C)C(=O)NCc2ccccc2)cc1OCC` (stereo not drawn): -2.74%, 6.41%, 4.33%, -4.42% and 0.774%.
For `CC1=CC(=O)C2C(C)(C)CCC[C@]2(C)[C@H]1CO` (stereo partly drawn), the activity change, negative = inhibition in assay [1] was -3.01%; in assay [2] it was -4.86%; in assay [3] it was 7.39%; in assay [4] it was -18.7%; in assay [5], -6.76%.
The matching figures for `CCCCOc1nc(N)c2c(n1)N(Cc1cccc(CN3CCCC3)c1)CC(=O)N2`: -8.1%, -1.99%, -43.6%, -25.7% and -5.08%.
For `CN(Cc1cc(C2CC2)n[nH]1)c1cc(C2CC(N)C2)nc(N)n1` (stereo not drawn), the activity change, negative = inhibition is -0.384% in assay [1]; 1.98% in assay [2]; -15.2% in assay [3]; -6.98% in assay [4]; 11.8% in assay [5].
For `CN(C)c1cccc(-c2c3c(=O)n(-c4ccccc4Cl)[nH]c3cc(=O)n2C)c1` the same measures were -7.88%, -13.1%, 0.082%, -32.9% and -5.13%.
Take `Cc1ccc(Nc2ncc(C(=O)N3CCN(c4ccc(F)cc4)CC3)c3ccccc23)cc1Cl`: the results for the activity change, negative = inhibition in assay [2], in assay [4] and in assay [5] were -28%, -38.7% and -11.4%, respectively.
For `O=c1[nH]c2ccc(S(=O)(=O)NCCO)cc2[nH]1`, the activity change, negative = inhibition is -3.65% in assay [1]; 0.562% in assay [2]; -3.28% in assay [3]; 3.05% in assay [4]; -10.2% in assay [5].
The matching figures for `O=C(Cn1c(=O)oc2cc(S(=O)(=O)N3CCCC3)ccc21)Nc1ccc(F)c(Cl)c1`: -3.07%, 6.09%, 4.04%, -1.77% and -46.6%.

The values above are taken from PubChem BioAssay AID1745853 (National Center for Advancing Translational Sciences (NCATS), 2022).
